Reference: patent publication US20120220530A1 (NOVOZYMES BIOPHARMA DK A S, published 2012)
Blank lines part the entries; values can stand above or below the binder they belong to.

Assays:
[1] = target: T1, glutathione-S-transferase (GST)-fused shFcRn (human, UniProt P55899 in part; P61769 in part, limits assumed); assay: SPR, immobilized shFcRn, pH 5.5
T1 construct: Made as in Berntzen et al. 2005 / FEBS J. 2008; also called shFcRn-GST; GST-tagged shFcRn; not shown: GST tag
Method: SPR experiments were carried out using a Biacore 3000 instrument (GE Healthcare).

[2] = target: T1, glutathione-S-transferase (GST)-fused …; assay: SPR, immobilized shFcRn (~1500 RU), 1:1 model

B1: HSA K573F (ligand)
chain: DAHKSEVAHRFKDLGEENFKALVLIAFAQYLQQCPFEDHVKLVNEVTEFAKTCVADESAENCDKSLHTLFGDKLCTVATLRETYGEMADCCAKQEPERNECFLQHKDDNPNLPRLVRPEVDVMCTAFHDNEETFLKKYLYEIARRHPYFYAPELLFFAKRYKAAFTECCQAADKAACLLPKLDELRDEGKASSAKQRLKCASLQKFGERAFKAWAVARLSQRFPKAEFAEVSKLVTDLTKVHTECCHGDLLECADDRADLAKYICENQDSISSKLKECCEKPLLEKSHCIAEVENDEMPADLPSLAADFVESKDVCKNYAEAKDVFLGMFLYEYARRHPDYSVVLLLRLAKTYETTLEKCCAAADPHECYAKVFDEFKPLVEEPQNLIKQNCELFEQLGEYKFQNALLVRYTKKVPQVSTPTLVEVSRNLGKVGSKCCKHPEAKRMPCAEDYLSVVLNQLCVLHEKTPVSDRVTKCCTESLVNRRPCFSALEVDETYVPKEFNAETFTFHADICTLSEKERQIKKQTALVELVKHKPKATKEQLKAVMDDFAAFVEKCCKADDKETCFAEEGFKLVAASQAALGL
- fold lower KD than the parent HSA [1]: > 10 fold

B2: HSA K573H (ligand)
chain: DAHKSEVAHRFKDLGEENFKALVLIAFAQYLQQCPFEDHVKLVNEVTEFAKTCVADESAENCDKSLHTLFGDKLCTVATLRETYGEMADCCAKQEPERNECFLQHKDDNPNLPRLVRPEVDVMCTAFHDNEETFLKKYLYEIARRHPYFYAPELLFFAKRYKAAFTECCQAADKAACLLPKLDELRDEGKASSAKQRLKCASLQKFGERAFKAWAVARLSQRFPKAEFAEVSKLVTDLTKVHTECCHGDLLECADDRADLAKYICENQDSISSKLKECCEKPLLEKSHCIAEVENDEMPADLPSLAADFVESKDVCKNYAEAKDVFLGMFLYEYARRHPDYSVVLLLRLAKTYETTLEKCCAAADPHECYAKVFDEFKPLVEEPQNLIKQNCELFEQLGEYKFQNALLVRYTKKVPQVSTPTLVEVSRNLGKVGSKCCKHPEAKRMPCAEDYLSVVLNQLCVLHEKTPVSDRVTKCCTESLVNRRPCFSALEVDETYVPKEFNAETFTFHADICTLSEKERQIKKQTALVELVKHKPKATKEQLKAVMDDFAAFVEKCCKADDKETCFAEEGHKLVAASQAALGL
- fold lower KD than the parent HSA [1]: > 10 fold

B5: HSA with the sheep albumin C-terminus (ligand)
chain: DAHKSEVAHRFKDLGEENFKALVLIAFAQYLQQCPFEDHVKLVNEVTEFAKTCVADESAENCDKSLHTLFGDKLCTVATLRETYGEMADCCAKQEPERNECFLQHKDDNPNLPRLVRPEVDVMCTAFHDNEETFLKKYLYEIARRHPYFYAPELLFFAKRYKAAFTECCQAADKAACLLPKLDELR[about 200 residues not spelt out]NLIKQNCELFEQLGEYKFQNALLVRYTKKVPQVSTPTLVEVSRNLGKVGSKCCKHPEAKRMPCAEDYLSVVLNQLCVLHEKTPVSDRVTKCCTESLVNRRPCFSALEVDETYVPKEFNAETFTFHADICTLSEKERQIKKQTALVELVKHKPKATKEQLKAVMDDFAAFVEKCCKADDKETCFAEEGPKLVASTQAALA
notes: also called HSA-SheepC
- Kd [2]: 600 nM
- koff [2]: 0.0021 s⁻¹
- kon [2]: 3300 M⁻¹ s⁻¹

Next, values leading:

- fold lower KD than the parent HSA [1]: > 10 fold
B3: HSA K573W (ligand)
chain: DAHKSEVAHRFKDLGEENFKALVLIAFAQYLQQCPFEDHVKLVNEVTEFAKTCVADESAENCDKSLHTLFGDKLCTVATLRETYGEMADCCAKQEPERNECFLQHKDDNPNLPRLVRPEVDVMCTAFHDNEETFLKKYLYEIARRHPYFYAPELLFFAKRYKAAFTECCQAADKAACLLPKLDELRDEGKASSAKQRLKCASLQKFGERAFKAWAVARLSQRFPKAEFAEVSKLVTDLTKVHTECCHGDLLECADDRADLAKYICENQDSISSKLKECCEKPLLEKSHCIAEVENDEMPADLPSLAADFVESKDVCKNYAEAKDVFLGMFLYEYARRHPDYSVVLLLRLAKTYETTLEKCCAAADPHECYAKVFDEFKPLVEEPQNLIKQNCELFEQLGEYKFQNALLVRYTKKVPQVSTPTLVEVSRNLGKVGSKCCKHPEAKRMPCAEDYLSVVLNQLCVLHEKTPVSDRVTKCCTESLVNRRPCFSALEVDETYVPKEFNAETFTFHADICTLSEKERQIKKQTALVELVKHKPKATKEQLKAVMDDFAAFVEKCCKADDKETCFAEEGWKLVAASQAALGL

- fold lower KD than the parent HSA [1]: > 10 fold
B4: HSA K573Y (ligand)
chain: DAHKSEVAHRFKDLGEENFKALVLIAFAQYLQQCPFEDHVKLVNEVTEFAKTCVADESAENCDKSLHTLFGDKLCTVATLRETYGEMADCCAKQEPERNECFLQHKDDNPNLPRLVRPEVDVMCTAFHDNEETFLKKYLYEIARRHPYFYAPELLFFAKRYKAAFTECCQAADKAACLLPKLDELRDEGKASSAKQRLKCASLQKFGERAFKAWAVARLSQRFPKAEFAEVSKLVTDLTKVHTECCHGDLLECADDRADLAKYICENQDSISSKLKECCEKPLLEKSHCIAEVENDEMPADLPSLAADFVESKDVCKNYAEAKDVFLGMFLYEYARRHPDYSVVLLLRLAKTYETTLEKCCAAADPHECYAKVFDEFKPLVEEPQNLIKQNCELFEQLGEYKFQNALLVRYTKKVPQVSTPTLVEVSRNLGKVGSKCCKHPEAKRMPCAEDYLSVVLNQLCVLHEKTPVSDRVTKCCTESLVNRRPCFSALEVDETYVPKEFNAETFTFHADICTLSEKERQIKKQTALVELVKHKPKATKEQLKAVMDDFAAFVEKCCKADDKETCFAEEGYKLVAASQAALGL

- Kd [2]: 400 nM
- koff [2]: 0.0016 s⁻¹
- kon [2]: 3500 M⁻¹ s⁻¹
B6: HSA with the rabbit albumin C-terminus (ligand)
chain: DAHKSEVAHRFKDLGEENFKALVLIAFAQYLQQCPFEDHVKLVNEVTEFAKTCVADESAENCDKSLHTLFGDKLCTVATLRETYGEMADCCAKQEPERNECFLQHKDDNPNLPRLVRPEVDVMCTAFHDNEETFLKKYLYEIARRHPYFYAPELLFFAKRYKAAFTECCQAADKAACLLPKLDELR[about 200 residues not spelt out]NLIKQNCELFEQLGEYKFQNALLVRYTKKVPQVSTPTLVEVSRNLGKVGSKCCKHPEAKRMPCAEDYLSVVLNQLCVLHEKTPVSDRVTKCCTESLVNRRPCFSALEVDETYVPKEFNAETFTFHADICTLSEKERQIKKQTALVELVKHKPKATKEQLKAVMDDFAAFVEKCCKADDKETCFAEEGPKLVESSKATLG
notes: also called HSA-RabC
